# Results published in article PMC12136788.
# This is one part of the list.
# B1: chr14:78183846:78183847:+_ENSG00000119705_ENST00000557342|hu_hu|hu_hu_hu_mus_False|18_108 (ssRNA)
# RNA: GGGAGUUCUACAGUCCGACGAUCUCUGUCUCAAAAAUCUUCAUCAGAUGUUUGAGCUCCGUGCAAAGCCUUUGCUCUUUGAGCUUGAACGUGGAUCUAUGGGAGGGAAAGCACUGUAUUUUCCUGUAAUUUUUUUUUUAAAGACAACAGAGGAUUGAGCAUCA
# B2: chr8:104075188:104075189:+_ENSG00000155097_ENST00000518738|hu_hu|motif|central (ssRNA)
# RNA: GGGAGUUCUACAGUCCGACGAUCCUUCCUAAACAAGGUGACAUUACACAGGUAACUGUCUUGGUCCUCUGAAAGAACAUUGCGGGACCUUGGAACUACCAUUUCGGCUAGUGUUUCAUACUGCUUAAUCCAGUCGUUGUGGUUCAACAGAGGAUUGAGCAUCA
# B3: chr1:193046084:193046085:+_ENSG00000116747_ENST00000432079|hu_hu|FALSE|FALSE (ssRNA)
# RNA: GGGAGUUCUACAGUCCGACGAUCUUCAUCAGGGCGCCACUUCAGUUUCCCUCUGAGACCAUGACCUGUCUUGUAAGUUUCUAAUGCGAUCAAAAUAUGAAAUGGAUGUAUACGAGCCUUUUUUAAUAGUUUUUCAUUACACAGCAACAGAGGAUUGAGCAUCA
# B4: chr2:47388980:47388981:-_ENSG00000143933_ENST00000272298|hu_mus|hu_hu_hu_mus_True|98_98 (ssRNA)
# RNA: GGGAGUUCUACAGUCCGACGAUCUUCAUCUGUUAACUUCUCUCCAAGGUUUGUCAUCACAUGGCGAAGCUCUGCUGCACUAAUAUAGCCAUUGCCAUCCUUAUCAAACACACGGAAUGCUUCUCUAAUCUCUUCUUCACUGUCCAACAGAGGAUUGAGCAUCA
# B5: chr7:141450121:141450122:+_ENSG00000106028_ENST00000265304|hu_mus|motif|central (ssRNA)
# RNA: GGGAGUUCUACAGUCCGACGAUCUCAUCCGUUCUAUGCCUUUUCUUUUGUCUGGUCACUCAGAAAUAUAAUGUUAUCAGCGGUGAUUGUUGUUGCUUGCCGCCUCACAUUGUUUUUAUCCAUGUACUCGCCAUAGUCCACUUUCAACAGAGGAUUGAGCAUCA
# B6: chr10:94956308:94956309:-_ENSMUSG00000062981_ENSMUST00000075829|mus_hu|FALSE|FALSE (ssRNA)
# RNA: GGGAGUUCUACAGUCCGACGAUCCCGAGGGAUAGGUUUUGUGUGUUCAUAUGGAAUGUCCACAGAAGGGUGGUAGCAUACUAUUGUCCUGCCAUCAGAAGUCAGAGCAAGCUCUACGUUGCAAUUAUAGUCAUCUGGUAGAGGCAACAGAGGAUUGAGCAUCA
# B7: chr3:100432656:100432657:+_ENSG00000114354_ENST00000490574|hu_mus|FALSE|FALSE (ssRNA)
# RNA: GGGAGUUCUACAGUCCGACGAUCUGUAACUUCAUCAUUACUCAGAAGCUUUCCUCUGAAUACUCGCUGCAUCAUUAGCACUAAUUCAUCGUAAGUAAUGUCUUCAUUAUGAAUGGGAAUUCGUCGGAUAUCUUCCCCAAGUUGCAACAGAGGAUUGAGCAUCA
# B8: 135175974_135176979_1890_3pUTR_ENSMUSG00000041757_ENSMUST00000038295|mouse|control|control (ssRNA)
# RNA: GGGAGUUCUACAGUCCGACGAUCUGUCUUGCUCGUUUAGCUUGAAGGUGUGGAGGCCAUCCCGGAACACCUCUGGGUAUGCAGGGACUUGCAUGAAAAGGUGGGCCCUGGGAGAGGAGUUCUCCACCAUUCGGUUCACCAUGCCAACAGAGGAUUGAGCAUCA
# B9: chr13:51246309:51246310:+_ENSMUSG00000021395_ENSMUST00000095797|mus_mus|motif|central (ssRNA)
# RNA: GGGAGUUCUACAGUCCGACGAUCUGCCUAUGAGAAAACACUGAGCACACAACGAUUGCAGCCAAGGACAGAACUGAGGUACGGUGUUCACAUGGUGAGCAGUUGUGACCACCCAGCAGUGUAAGGUGGUCAGCCUCUGUGAAACAACAGAGGAUUGAGCAUCA
# B10: chrX:114877694:114877695:+_ENSG00000102024_ENST00000355899|hu_mus|FALSE|FALSE (ssRNA)
# RNA: GGGAGUUCUACAGUCCGACGAUCGUUCAGUUUGGGGUUUCCGCUGACAACAUCAGCUGGAGUAACGAACUGUCUGCAACCUAAUUUAUCUGCUUGUUGAAGCAUACUUUCGGCUCUCUUUAAAUCAUCAGUUUCAUUGAAACCCAACAGAGGAUUGAGCAUCA
# B11: 19499686_19499938_3247_CDS_ENSG00000127481_ENST00000375254|human|control|control (ssRNA)
# RNA: GGGAGUUCUACAGUCCGACGAUCGUAUUCCUCUACUAUUUCAACAUCAUAUUUCACUGAGCUACACUUAGUGGUGGAUGCCAGUUCUAGAAGCGAGCUAGCAUGCUCAGCCUUCAUUCCCUGUUUGAUAAGGUGAUCCUUUAUCAACAGAGGAUUGAGCAUCA
# B12: chr11:18536373:18536374:-_ENSG00000074319_ENST00000251968|hu_hu|motif|central (ssRNA)
# RNA: GGGAGUUCUACAGUCCGACGAUCAUAUGGGUAUGUGUCCAGUAGCCAUAGGCAUAUUGGAAUAUUGUAUGUAUUACCUCGGUAAGGCACAGGGAUUGUUCCAGUGAGGUUCAUUAGUUCCCUGGAACUGCCAUCGUUAAAAACCAACAGAGGAUUGAGCAUCA
# B13: 13375859_13375979_419_3pUTR_ENSG00000133794_ENST00000403290|human|control|control (ssRNA)
# RNA: GGGAGUUCUACAGUCCGACGAUCUGCCUUUCCGUUUGCGGUUGCAAUCCACACCACUGGUACCAAGAGAGCUGGAAAGCAGGUCGGUGGGGCCCGGGGACAUGAAAUCACUGAUGGUUGAAGAAAUGUCCAUUCUCUGGUCUGCAACAGAGGAUUGAGCAUCA
# B14: chr14:76907486:76907487:+_ENSMUSG00000022010_ENSMUST00000022587|mus_hu|FALSE|FALSE (ssRNA)
# RNA: GGGAGUUCUACAGUCCGACGAUCAGUGACACCUUACAAUUGUGUAGAGAACAUGCACAGAAACAUAUGCAUAUAACUACUAUACAGGUGAUAUGCAGAAACCCCUACUGGGAAAUCCAUUUCAUUAGUUAGAACUGAGCAUUUCAACAGAGGAUUGAGCAUCA
# Molecular target: T1, UNK ZnF1-3 (human, UniProt Q9C0B0 31-174)
# T1 sequence: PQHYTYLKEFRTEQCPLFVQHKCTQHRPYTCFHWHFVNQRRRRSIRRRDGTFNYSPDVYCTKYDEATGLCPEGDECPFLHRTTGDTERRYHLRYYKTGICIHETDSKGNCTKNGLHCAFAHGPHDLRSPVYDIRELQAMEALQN
# Assay: nsRBNS (natural sequence RNA bind-n-seq); RBNS binding buffer (assumed for nsRBNS): 25 mM Tris pH 7.5, 150 mM KCl, 3 mM MgCl2, 0.01% Triton X-100, 500 ug/ml BSA, 20 U/ml SUPERase-In, 4 C; UNK is unkempt and MSI1 is Musashi-1; names of the RNAs are library labels; protein concentration not given here; high values mean tight binding
row,Binder,binding signal [enrichment R]
1,B1,1.24
2,B2,0.508
3,B3,1.34
4,B4,0.775
5,B5,0.289
6,B6,1.08
7,B7,0.647
8,B8,1.19
9,B9,0.96
10,B10,0.531
11,B11,0.447
12,B12,0.503
13,B13,1.08
14,B14,1.12
